Laboratory results taken from PubChem BioAssay AID624418 (National Center for Advancing Translational Sciences (NCATS), 2012).
Out of some 410,000 compounds screened, about 530 (0.13%) were called active. Inconclusive means that the source gave no clear call. Such entries were picked first, then a sample of the others. The call rests on the fitted dose curve; in most records, active means well fitted inhibition curve with a large enough effect; inconclusive means small, poorly fitted or top-dose-only effect, or another doubt; inactive means no such curve, though single readings can be large or run the other way. Where the call is inconclusive, the potency comes from a doubtful curve fit.

Test: qHTS of GLP-1 Receptor Inverse Agonists: Cytotox Screen
Conditions: HEK293 cAMP-luciferase reporter cells, luminescence, 24 h; activity change, negative = inhibition: at 38.3 µM (top of the series) unless noted
Outline: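 Quantitative HTS format, 1536 wells, 200 cells/uL seeded. Compounds: 23 nL, 24 h, 37 °C. Detection: luciferase reagent, luminescence at 12 min RT; decreased signal taken as cytotoxic.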
On the % scale 0 is the no-effect control and ±100 the full control effect; potency means the concentration at half of the fitted maximal effect.

| SMILES | Potency | activity change, negative = inhibition |
| --- | --- | --- |
| Cc1cc2c(OCC(O)CNCc3ccco3)cccc2[nH]1 (centres undefined) | inconclusive: 14.1 µM [inhibitor, single point] |  |
| CCC(C)c1ccccc1OCCCCN1CCCC1 (centres undefined) | inconclusive: 28.2 µM [inhibitor, single point] |  |
| Cc1ccccc1OCC(=O)Nc1ccc(N2CCN(C)CC2)c(Cl)c1 |  | inactive: -3.6% |
| O=[N+]([O-])c1cc(C(F)(F)F)ccc1NCCc1c[nH]c2ccccc12 | active: 10 µM |  |
| O=C(NC(=S)Nc1ccc(F)cc1)c1ccc2c(c1)OCCO2 | inconclusive: 28.2 µM [inhibitor, single point] |  |
| Cc1cc(-c2cn3ccccc3n2)c(C)n1-c1ccccc1 | inconclusive: 12.6 µM [inhibitor, single point] |  |
| Cc1cc(C(C)(C)C)oc1C(=O)N(CC(=O)NC1CCCC1)c1c(C)cccc1C | inconclusive: 28.2 µM [inhibitor, single point] |  |
| C/C(=N\NC(=S)NCCc1ccccc1)c1ccc(C#N)cc1 |  | inactive: -4.94% |
| CCn1c(CCn2c3ccccc3c3ccccc32)n[nH]c1=S | inconclusive: 28.2 µM [inhibitor, single point] |  |
| Cc1cc(C)cc(NC(=O)Nc2cc(-c3ccccc3)nn2C)c1 |  | inactive: -14.9% |
| CC(C)(C)c1cc(C(=O)NN)n(Cc2ccc(F)cc2)n1 |  | inactive: 3.57% |
| N#CCCN1CCN(Cc2cc(-c3ccccc3)ccc2O)CC1 |  | inactive: -13.6% |
| O=C(CN1C(=O)/C(=C\c2ccccc2Cl)Oc2ccccc21)NCc1cccnc1 | inconclusive: 28.2 µM [inhibitor, single point] |  |
| CCOC(=O)c1ccc(N2C(=O)c3[nH]nc(-c4ccc(C)cc4)c3C2c2cccs2)cc1 (centres undefined) | inconclusive: 11.2 µM [inhibitor, single point] |  |
| CCOc1ccccc1-c1nc(-c2ccc(NC(=O)Cc3ccc(OC)cc3)cc2)no1 | inconclusive: 14.1 µM [inhibitor, single point] |  |
| CCCn1c(CCC(=O)Nc2cc(OC)cc(OC)c2)nc2cccnc21 |  | inactive: 5.72% |
| Oc1ccccc1-c1n[nH]c(-c2ccccc2O)n1 | inconclusive: 28.2 µM [inhibitor, single point] |  |
| COc1ccc(/C=C/C(=O)ONC2=NCCCCC2)cc1OC | inconclusive: 28.2 µM [inhibitor, single point] |  |
| COc1ccc(C(CCN2CCCC(C)C2)c2c(OC)cc(OC)c3c(C)cc(=O)oc23)cc1 (centres undefined) | inconclusive: 1 µM [inhibitor, full curve, poor fit] |  |
| N#C/C(=C(/O)COC(=O)Cc1c[nH]c2ccccc12)c1nc2ccccc2[nH]1 | inconclusive: 12.6 µM [inhibitor, single point] |  |
| C/C(=N/NC(=O)c1cccc(N2CCCC2=O)c1)c1ccc(Br)cc1 |  | inactive: 14.9% |
| C=CC(=O)Nc1ccc(N(C)c2ccnc(Nc3ccc(N4CCN(C)CC4)cc3)n2)cc1 | inconclusive: 2.82 µM [inhibitor, partial curve, poor fit] |  |
| COc1ccc(C(=O)O/N=C(\N)c2ccccn2)c(OC)c1 | inconclusive: 11.2 µM [inhibitor, single point] |  |

| SMILES | Potency | activity change, negative = inhibition |
| --- | --- | --- |
| O=C(CCS(=O)(=O)c1cc(Br)cc2c1N(C(=O)C1CC1)CC2)N1CCN(c2cccc(Cl)c2)CC1 |  | inactive: 18% |
| COc1ccc(-c2nc3c(C(=O)NCCN(C)C)cccc3c3ccccc23)cc1 | inconclusive: 20 µM [inhibitor, single point] |  |
| COc1ccccc1Nc1nc(N)nc(CN2CCC(Cc3ccccc3)CC2)n1 | inconclusive: 12.6 µM [inhibitor, single point] |  |
| O=C(CSc1nnc(-c2ccc(S(=O)(=O)N3CCCC3)cc2)o1)NCc1ccccc1 | inconclusive: 28.2 µM [inhibitor, single point] |  |
| Cc1cc(C)c(NC(=O)c2nc3ccccc3nc2N2CCCCC2)c(C)c1 |  | inactive: 0% |
| CS(=O)(=O)c1ccc(S(=O)CC(=O)Oc2ccc(Cl)cc2)c([N+](=O)[O-])c1 (centres undefined) |  | inactive: -31.5% |
| O=C1Nc2ccc(Br)cc2C12OCCO2 | inconclusive: 15.8 µM [inhibitor, single point] |  |
| CCn1ccc(=N)cc1 |  | inactive: -7.23% |
| Cc1ccsc1C=Nc1ccc(O)cc1 | inconclusive: 10 µM [inhibitor, single point] |  |
| CCc1ccc(-n2c(=O)c3c4c(sc3n(Cc3cc(=O)n5c(C)cccc5n3)c2=O)CCC4)cc1 |  | inactive: 1.31% |
| Cc1ccc(CNC(=O)c2nn(-c3ccc(Cl)cc3)nc2CO)cc1 |  | inactive: 10.5% |
| Cc1ccnc(NC(=S)NC(=O)c2cncc(Br)c2)c1 | inconclusive: 7.08 µM [inhibitor, partial curve, poor fit] |  |
| O=C1C=C(Nc2ccccc2)c2ccccc2C1=O | inconclusive: 3.55 µM [inhibitor, partial curve, poor fit] |  |
| CCCCOc1ccc(C(O)C(CN2CCCCC2)c2ccccc2)cc1 (centres undefined) | inconclusive: 7.08 µM [inhibitor, partial curve, poor fit] |  |
| Cc1onc(-c2c(Cl)cccc2Cl)c1C(=O)NNc1ccccc1 | inconclusive: 25.1 µM [inhibitor, single point] |  |
| COc1ccc(C(=O)NCCN(C)C)c2nc3ccccc3cc12 | inconclusive: 3.98 µM [inhibitor, partial curve, poor fit] |  |
| Cc1onc(-c2ccc3c(c2)OCO3)c1-c1ccc2[nH]ccc2c1 | inconclusive: 2.51 µM [inhibitor, full curve, poor fit] |  |
| N#Cc1ccc(-c2csc(NNC(=O)c3ccccc3)n2)cc1 | inconclusive: 10 µM [inhibitor, partial curve, poor fit] |  |
| O=C(/C=C1\NC2(CCCC2)Cc2ccccc21)C(=O)N/N=C/c1ccc(O)c(O)c1 | inconclusive: 20 µM [inhibitor, single point] |  |
| O=c1c2c(nc(NCCO)n1CC1CCCCC1)-c1ccccc1CC21CCCC1 | inconclusive: 28.2 µM [inhibitor, single point] |  |
| Cc1ccc(C(CNS(=O)(=O)c2ccc(F)cc2)N2CCN(C)CC2)cc1 (centres undefined) |  | inactive: 1.63% |
| Cc1nn(-c2nnc(C)c(=O)[nH]2)c(C)c1SCC(=O)Nc1ccc(C(C)C)cc1 |  | inactive: -9.58% |
| CCOc1ccccc1NC(=O)C1CCN(S(=O)(=O)c2ccc3[nH]c(=O)oc3c2)CC1 |  | inactive: -1.83% |

| SMILES | Potency | activity change, negative = inhibition |
| --- | --- | --- |
| Nc1nc(Cl)cc(Sc2ccc3ccccc3c2)n1 | inconclusive: 10 µM [inhibitor, partial curve, poor fit] |  |
| CC[C@]12c3[nH]c4ccc(Cl)cc4c3CCN1C(=O)[C@@H](CC(=O)NCc1cccc(C(F)(F)F)c1)C[C@@H]2C(=O)N1CCN(C(=O)c2ccco2)CC1 | inconclusive: 10 µM [inhibitor, partial curve, poor fit] |  |
| O=C(COc1ccc2ccccc2c1)Nc1ccc2c3c(cccc13)CC2 | inconclusive: 0.501 µM [inhibitor, full curve, poor fit] |  |
| Cc1oc(-c2ccc(C(=O)NCc3ccccc3)cc2)nc1CN1CCc2ccccc21 |  | inactive: -5.69% |
| O=C(Nc1ccc(OC(F)(F)F)cc1)N1CCc2nc(NCc3cccc(Oc4ccccc4)c3)ncc2C1 |  | inactive: -17% |
| CC1CCCC(C)N1S(=O)(=O)c1ccc(NC(=O)CNC2CCCC2)cc1 (centres undefined) | inconclusive: 10 µM [inhibitor, partial curve, poor fit] |  |
| CCOc1ccc2nc(SCC(=O)N(C)C)[nH]c2c1 |  | inactive: -5.67% |
| Cc1ccc(S(=O)(=O)N2CCN(C(=O)CCC(=O)NCc3cccc(C(F)(F)F)c3)CC2)cc1 |  | inactive: -6.07% |
| NC(CCc1ccccc1)c1csc(NC(=O)Nc2cccc(C(F)(F)F)c2)n1 (centres undefined) | inconclusive: 12.6 µM [inhibitor, single point] |  |
| O=C(CSc1nc2ccccc2[nH]1)Nc1nc(-c2cccc(Br)c2)cs1 |  | inactive: 63.4% |
| COc1ccc(-c2[nH]c3ccccc3c2SCCN)cc1 | inconclusive: 7.94 µM [inhibitor, partial curve, poor fit] |  |
| COc1cnc(-c2ccccn2)nc1Sc1cccc(Cl)c1 | inconclusive: 2.24 µM [inhibitor, partial curve] |  |
| CC(=O)c1ccc(OCc2cc(C(=O)N(C)Cc3ccccn3)no2)cc1 |  | inactive: 3.78% |
| CC(C)C(=O)NC(=S)Nc1ccc(S(=O)(=O)NC2CCCCC2)cc1 |  | inactive: 1.24% |
| O=C(Nc1nc2c(F)cc(F)cc2s1)c1ccccn1 | inconclusive: 1.12 µM [inhibitor, full curve, poor fit] |  |
| C[C@@H](NC(=O)c1[nH]cnc1C(=O)Nc1ccon1)c1ccccc1 | inconclusive: 0.562 µM [inhibitor, full curve, poor fit] |  |
| CCCCCCCn1c(=N)n(CC(O)c2ccco2)c2ccccc21 (centres undefined) | inconclusive: 28.2 µM [inhibitor, single point] |  |
| CC(C)C[C@@H](CN1CCCC1CN1C(=S)NC[C@@H]1Cc1ccc(O)cc1)N1C[C@H](Cc2ccc(O)cc2)N(CCc2ccccc2)C1=S (some centres undefined) | inconclusive: 11.2 µM [inhibitor, single point] |  |
| CCN=c1scc(C)n1/N=C/c1ccc(O)c(O)c1O | inconclusive: 10 µM [inhibitor, partial curve] |  |
| N#C/C(=C(/O)COC(=O)CSc1ccc2ccccc2c1)c1nc2ccccc2[nH]1 | inconclusive: 7.08 µM [inhibitor, partial curve, poor fit] |  |
| Cc1cccc(NC(=O)c2nc[nH]c2C(=O)NCCCCCNC(=O)OC(C)(C)C)c1 | inconclusive: 11.2 µM [inhibitor, single point] |  |
| Cc1ccc2cccc(OCCCOc3ccccc3F)c2n1 | inconclusive: 12.6 µM [inhibitor, single point] |  |
| COc1ccc(CCNCc2ccc(-c3ccccc3)cc2)cc1OC | inconclusive: 28.2 µM [inhibitor, single point] |  |
